These results are taken from PubChem BioAssay AID488969 (Vanderbilt High Throughput Screening Facility, 2010).

Over roughly 110,000 compounds, “z-score” has its median near -0.1; the highest 2% begin near 2. Some of the results follow. Calls of active or inactive are those of the source.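 How the source made its calls: active means z-score in the third read window above 3 or below -3; inactive means the rest.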

This assay deals with Metabotropic glutamate receptor 8 (Rattus norvegicus) (UniProt P70579). In words: rat mGluR8 modulators via GIRK flux, primary screen, cell-based, thallium flux, HTS (AID 488969). The note with it: HEK293 rat mGluR8, GIRK (G protein-gated inwardly rectifying potassium channel) thallium flux, FluoZin2; at 10 µM; stronger effect = higher value; submaximal glutamate (EC20) added with thallium.
Chain of UniProt P70579 (P70579 whole entry, looked up): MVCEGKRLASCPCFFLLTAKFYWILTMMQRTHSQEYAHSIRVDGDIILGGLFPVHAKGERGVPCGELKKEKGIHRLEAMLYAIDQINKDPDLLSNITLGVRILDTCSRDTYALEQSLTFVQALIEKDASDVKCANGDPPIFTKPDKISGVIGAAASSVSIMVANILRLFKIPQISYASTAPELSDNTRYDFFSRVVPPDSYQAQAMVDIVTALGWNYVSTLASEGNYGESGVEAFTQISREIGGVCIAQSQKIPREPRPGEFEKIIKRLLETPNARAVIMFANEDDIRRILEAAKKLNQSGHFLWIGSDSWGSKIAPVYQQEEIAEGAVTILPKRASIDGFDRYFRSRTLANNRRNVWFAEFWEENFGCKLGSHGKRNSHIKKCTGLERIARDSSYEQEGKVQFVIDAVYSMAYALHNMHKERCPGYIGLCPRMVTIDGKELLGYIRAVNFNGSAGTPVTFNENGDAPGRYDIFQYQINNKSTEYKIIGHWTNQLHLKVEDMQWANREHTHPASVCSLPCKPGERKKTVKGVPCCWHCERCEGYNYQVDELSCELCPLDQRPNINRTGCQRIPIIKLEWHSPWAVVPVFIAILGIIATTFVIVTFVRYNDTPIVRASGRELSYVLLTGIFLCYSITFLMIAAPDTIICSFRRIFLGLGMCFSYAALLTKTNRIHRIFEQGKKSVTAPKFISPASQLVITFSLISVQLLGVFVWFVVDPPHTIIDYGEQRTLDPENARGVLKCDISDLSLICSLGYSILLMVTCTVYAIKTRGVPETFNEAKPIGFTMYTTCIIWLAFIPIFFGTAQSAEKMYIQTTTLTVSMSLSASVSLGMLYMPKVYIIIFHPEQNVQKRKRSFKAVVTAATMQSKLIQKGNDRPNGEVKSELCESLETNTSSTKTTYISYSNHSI
As to `Cc1cccc(NC(=O)CN2CCC(NC(=O)C3CCCCC3)CC2)c1C`, the z-score was -0.296.

Take `Cc1ccccc1C(=O)NC1CCN(C(=O)N(c2ccccc2)c2ccccc2)CC1`: the z-score is -0.364.

In turn, `COC(=O)C1=C(C)NC(=O)C1(NS(=O)(=O)c1ccc(NC(C)=O)cc1)C(F)(F)F` (centres undefined) returned a z-score of -0.0276.

Molecule `CC(C)C(=O)NNC(=O)c1ccccn1` displayed a z-score of -0.197.

In turn, `O=[N+]([O-])c1ccccc1Sc1nccn1Cc1ccccc1` returned a z-score of -0.0656.

With `COc1ccccc1C(=O)n1nc(-c2ccccc2)nc1NCc1ccco1`, the z-score is -0.67.

`COCCN(C(=O)CC(C)(C)C)c1nnc(-c2cccnc2)s1` had a z-score of -0.069.

In the case of `O=C(Cc1sc(-c2ccccc2Cl)nc1-c1ccccc1)Nc1ccc(F)cc1`, the z-score came to 0.407.

`O=C(c1ccc(-n2c(SCc3cc(F)ccc3F)nc3ccccc3c2=O)cc1)N1CCOCC1`: the z-score was -0.129.

Consider `CCC(=O)NC(=S)Nc1ccc(S(=O)(=O)NC(C)C)cc1`, for which the z-score is -0.145.

`CC/C(C)=N\N=C\c1c(O)n(CC)c2cc(C3=NNC(=O)CC3)ccc12` yielded a z-score of -0.413.

Take `CC(=O)/C(=C\Nc1ccc(OCc2ccccc2)cc1)c1ccccc1`: the z-score was 0.0776.

With `CC1(C)CC(=O)C2=C(C1)N(c1ccccc1)C(N)=C(C#N)C2c1ccsc1` (centres undefined), the z-score is active: -3.95.

In turn, `CCCCN(C)C(=O)C(Cc1ccccc1)NS(=O)(=O)c1ccc2c(c1)CCC(=O)N2` (centres undefined) came in with a z-score of 0.0641.

For `Cc1ccc(S(=O)(=O)CCc2nc3ccccc3n2CCC#N)cc1`, the z-score is -0.167.

Take `CNC(=O)c1cc2c(s1)CCCCCC2`: the z-score was -0.211.

In the case of `COc1cc(C(=O)NCCN2CCOCC2)cc(OC)c1OC`, the z-score was -0.821.

Turning to `Cc1ccc(C)c(N(C)C(=O)COc2cc(=O)n(C)c3ccccc23)c1`, the z-score is -0.0854.

In the case of `CC1=CCC(/C=N\Nc2nnc3c(n2)[nH]c2ccccc23)CC1` (centres undefined), the z-score is -0.285.

`O=C(NCCc1ccccc1)c1ccc(=O)[nH]c1`: the z-score is -0.179.

Regarding `NS(=O)(=O)c1cccnc1Nc1cccc(Cl)c1`, the z-score came to 0.214.

`Cc1nc2ncnn2c(C)c1CCC(=O)N1CCN(Cc2ccccc2)CC1` came in with a z-score of -0.498.

The molecule `CCc1cc(-c2n[nH]c(=S)n2CC(C)C)cs1` registered a z-score of 1.12.

With `c1cncc(-c2nnc(-c3cccnc3)nn2)c1`, the z-score is -0.0178.

In turn, `c1ccc(-n2nnnc2-n2nnc3ccccc32)cc1` gave a z-score of -0.315.

The molecule `Cc1c(Cl)cccc1NC(=O)CSCc1cc(=O)[nH][nH]1` returned a z-score of 0.139.

In turn, `CCCCn1c(SCC(=O)c2ccccc2)nc2c1c(=O)[nH]c(=O)n2C` came in with a z-score of -0.0394.

For `COc1ccc(S(=O)(=O)N2CCCC(C(=O)NCc3ccncc3)C2)cc1` (centres undefined), the z-score is -0.0814.

For the molecule `Cc1ccc2nc(-c3sc4nc(C)cc(C)c4c3N)[nH]c2c1`, the z-score is -0.162.

With `COc1ccc(OC)c(C2C(C(=O)c3cccs3)=C(O)C(=O)N2c2cc(C)on2)c1` (centres undefined), the z-score was active: -4.72.

In turn, `Cc1ccc(C)n1NC(=O)c1ccc(Cl)cc1` displayed a z-score of 0.186.

`Cn1c(=O)c2c(ncn2CC(=O)Nc2ccc(N3CCOCC3)cc2)n(C)c1=O` had a z-score of 0.202.

Turning to `COc1ccc2cc(C)c(SCC(=O)Nc3cc(C)on3)nc2c1`, the z-score was -0.00116.

Turning to `Cc1cc(Oc2cc(N)cc([N+](=O)[O-])c2)ccc1Cl`, the z-score is 0.0378.

For `CN(C)c1nccc(N(Cc2ccccc2)Cc2ccccc2)c1C#N`, the z-score is 0.368.

In the case of `CC(CNC(=O)c1cc(Cl)ccc1[N+](=O)[O-])NC(=O)c1cc(Cl)ccc1[N+](=O)[O-]` (centres undefined), the z-score was -0.0709.

As for `Cc1ccc(-n2nnnc2-c2cnn(-c3cccc(F)c3)c2C(F)(F)F)cc1`, the z-score worked out at 0.0555.

In the case of `O=C1CC(c2ccccc2)C(=O)N1c1cccc(O)c1` (centres undefined), the z-score came out at 0.454.

`Cc1ccc(NC(=O)CN2CCN(CCN=CC3=C(O)CC(c4ccccc4)CC3=O)CC2)cc1` (centres undefined): the z-score was -0.283.

For the molecule `COC(=O)c1cc(OC)c(OC)cc1NC(=O)c1c(-c2ccccc2)noc1C`, the z-score was -0.341.

The molecule `CCc1nnc(NS(=O)(=O)c2ccc(NC(=S)NC(=O)/C=C/c3ccc(C(C)C)cc3)cc2)s1` had a z-score of -0.159.

In turn, `COc1ccc(N2C(=O)C3CCCN3C2c2ccc(C)cc2)cc1Cl` (centres undefined) gave a z-score of -0.144.

Molecule `CC(=O)c1cnc2c(-c3ccc(Cl)cc3)cnn2c1C` yielded a z-score of 0.0303.

The molecule `O=C1NCCCc2c1no[n+]2[O-]` yielded a z-score of -0.937.

Take `CCCCCCn1c(SCC(C)C)nc2c1c(=O)[nH]c(=O)n2C`: the z-score was -0.998.

Molecule `CCc1cc(/C(Cc2cscn2)=N\O)c(O)cc1O` yielded a z-score of -0.0483.

`CC/C(C)=C1\SC(N2CCN(C(C)=O)CC2)=NC1=O` returned a z-score of -0.255.

As for `COC(=O)CSC1=C(C#N)C(c2cccc(F)c2)CC(=O)N1` (centres undefined), the z-score is -0.27.

On to `C=CC[C@H]1CC(Cc2ccccc2)=C[C@H](CC=C)N1`, for which the z-score worked out at 0.926.

`Cn1c(=O)n(CCCOc2ccc(Cl)cc2)c2ccccc21` showed a z-score of 0.163.

`COc1cc(OC)cc(C(=O)N[C@H](C(=O)OCC(=O)Nc2ccc(F)c(F)c2)C(C)C)c1` yielded a z-score of 0.0207.

`O=C(Nc1cccc(Cl)c1)C1CCCN(S(=O)(=O)c2cnc[nH]2)C1` (centres undefined): the z-score was -0.0369.

Molecule `Cc1ccc2cccnc2c1NC(=S)NC(=O)c1ccccc1` yielded a z-score of 0.544.

Consider `CC(C)n1nnnc1SCC(=O)NNC(=O)C1CCCCC1`, for which the z-score was -0.128.

Consider `CCn1cc(/C=N\NC(=O)c2csc3ccccc23)c(C)n1`, for which the z-score is -0.112.

`C#CCSC1=C(C#N)C(c2cccs2)C(C(=O)OCC)=C(C)N1` (centres undefined) gave a z-score of -0.176.

For the molecule `COc1ccc(-c2nc3ccccn3c2C=O)cc1`, the z-score was -0.0294.

The molecule `Cc1c(N=C2SCC(=O)N2/N=C/c2ccccc2)c(=O)n(-c2ccccc2)n1C` came in with a z-score of -0.023.

For the molecule `CC1(C)CC(=O)C(C=NCCN2CCN(C(=O)CC3CCCC3)CC2)=C(O)C1`, the z-score worked out at 0.544.

`CCc1ccc(NC(=S)NC2CC3CCC(C2)N3Cc2ccco2)cc1` (centres undefined) yielded a z-score of 0.699.

Take `Cc1ccc(N2C(=O)c3ccccc3NC2C(C)Cc2ccc3c(c2)OCO3)cc1` (centres undefined): the z-score was -0.0122.

The molecule `Cc1cc([N+](=O)[O-])nn1CC(=O)Nc1nccs1` yielded a z-score of 0.292.

For `Cc1nnn(C23CC4CC(CC(CC(=O)Nc5ccc(C)c(C)c5)(C4)C2)C3)n1`, the z-score was -0.252.

In turn, `O=C(O)[C@@H]1CCCN1C(=O)c1ccco1` registered a z-score of 0.101.

In turn, `O=C(NC(=S)Nc1ccccc1O)c1ccc(-c2ccc(Cl)cc2)o1` returned a z-score of -0.262.

Take `Cc1ccc(NC(=O)COC(=O)CCc2c[nH]c(=O)[nH]2)cc1`: the z-score is 0.58.

As to `NC(=S)N=Nc1c(O)n(Cc2ccc(F)cc2)c2ccccc12`, the z-score worked out at 1.76.

As for `C=CCn1c(SCC(=O)OCC)nc2cc(C(=O)NCc3ccco3)ccc2c1=O`, the z-score was -0.24.

In the case of `C/C(=N\NC(=O)Cn1c(-c2ccccn2)nc2ccccc21)c1ccccc1`, the z-score was 0.577.

For the molecule `COC(=O)CC1C(=O)NCCN1C(=O)Nc1ccc(Cl)cc1` (centres undefined), the z-score is -0.00409.

Molecule `O=C(CSc1ccc(-c2nc3ccccc3[nH]2)cn1)Nc1ccc(S(=O)(=O)N2CCCC2)cc1` showed a z-score of -0.35.

`COc1cc(/C=N/NC(=O)C(=O)N2CCCC2)ccc1O` had a z-score of -0.205.

For `CCOC(=O)C(NCc1ccc(F)cc1)(NC(=O)c1ccccc1)C(F)(F)F` (centres undefined), the z-score is -0.631.

The molecule `CCOC(=O)c1nnn(-c2nonc2N)c1-c1ccc(C)cc1` gave a z-score of 0.821.

`Cc1ccc(N(CC(O)CN2CCCC2)S(=O)(=O)c2ccccc2)cc1` (centres undefined): the z-score is -0.209.

In turn, `Cc1cc(=O)oc(C)c1C(=O)OCC(=O)c1ccc(Br)cc1` showed a z-score of -0.578.

In the case of `COc1cccc(-c2cc(C(=O)O)no2)c1`, the z-score is -0.677.

`COc1ccc(CCNS(=O)(=O)c2cccs2)cc1` returned a z-score of 0.403.

With `CC(C)C(C(=O)Nc1ccc2c(c1)OCO2)N1C(=O)c2ccccc2C1=O` (centres undefined), the z-score was -0.367.

The molecule `CCn1c(COc2ccccc2)nnc1SCC(=O)C(C)(C)C` came in with a z-score of -0.408.

The molecule `CC(=O)c1ccc2c(c1)C1C=CCC1C(c1ccncc1)N2` (centres undefined) yielded a z-score of -0.00724.

With `Cn1c(=O)n(CCc2ccccc2)c(=O)c2c1ncn2Cc1ccccc1`, the z-score is -0.501.

In the case of `O=c1c2ccccc2nc2c3ccccc3c(NCc3ccco3)nn12`, the z-score stood at 0.342.

`O=C(/C=C/c1cccc([N+](=O)[O-])c1)NCCSCc1ccccc1Cl` came in with a z-score of -0.15.

Take `CCOc1cc(C2C(C#N)=C(N)OC(C)=C2C(C)=O)c(Br)c(Br)c1OC(C)C` (centres undefined): the z-score was 0.215.

`O=C(c1ccc(CNc2c(N3CCCC3)c(=O)c2=O)cc1)N1CCc2ccccc2C1` showed a z-score of 0.0853.

For `Cc1c(CCOC(=O)C23CC4CC(CC(C4)C2)C3)sc[n+]1Cc1ccccc1`, the z-score is -0.337.

For `CN(C)S(=O)(=O)c1cccc(NC(=O)COC(=O)C2(c3ccccc3F)CCCC2)c1`, the z-score was -0.26.

For the molecule `COc1cc(CNC2CCCC2)cc(Cl)c1OCc1ccccc1Cl`, the z-score worked out at 0.0424.

Molecule `CCN1c2ccccc2N(C)C1(C)c1ccccc1` (centres undefined) had a z-score of 0.0532.

Consider `CCOC(=O)N1CCC(N2C(=O)c3ccccc3C2Nc2ccc3c(C)cc(=O)oc3c2)CC1` (centres undefined), for which the z-score was active: 4.01.

Consider `CCCNC(=O)CS(=O)(=O)Cc1nc(-c2cccc(OC)c2)oc1C`, for which the z-score is 0.16.

For the molecule `O=c1[nH][nH]c(C(F)(F)F)c1C=NCc1cccc(Cl)c1`, the z-score was -0.222.

In the case of `CN(C)c1ccc(N/C(=N\S(=O)(=O)c2cccs2)c2ccccc2)cc1`, the z-score is -0.167.

In turn, `Cc1cccc2sc(NC(=O)CN3C(=O)c4ccccc4C3=O)nc12` showed a z-score of -0.16.

`O=C1CCCCC(=O)c2ccccc2N1` had a z-score of 2.21.

For the molecule `CC(C)OC(=O)c1ccc(NC(=O)Cn2c(-c3nonc3N)nc3ccccc32)cc1`, the z-score was -0.0806.

In the case of `COc1ccc(OC)c(NC(=S)NN2CCN(C)CC2)c1`, the z-score was -0.267.

Consider `CC1(C)NC(=O)N(CCCCSc2ccc(Cl)cc2)C1=O`, for which the z-score was determined as 0.189.

In turn, `Cc1ccc(NS(=O)(=O)c2cc(C(=O)NCCSc3ccc(C)cc3)ccc2C)cc1` came in with a z-score of 0.000328.

Molecule `COc1ccc2ccccc2c1C1CC(=O)N2CN(C3CCCCC3)CSC2=C1C#N` (centres undefined) showed a z-score of 0.16.

Regarding `COC(=O)c1ccc(NC(=O)C2CCCCC2C(=O)O)cc1` (centres undefined), the z-score is -0.0344.

Regarding `CN1CCN(C(=O)/C=C/c2ccc3c(c2)OCO3)CC1`, the z-score was -0.453.

For the molecule `Cc1cc(C)n(CC(O)Cn2c3ccc(Cl)cc3c3cc(Cl)ccc32)c(=O)n1` (centres undefined), the z-score is -0.0985.

`CC1CN(Cc2cc(=O)[nH]c(C(C)C)n2)CC(C)O1` (centres undefined) came in with a z-score of -0.125.

`O=C(CN(C(=O)Cn1nnc(-c2cccs2)n1)c1ccc2c(c1)OCCO2)NCC1CCCO1` (centres undefined) returned a z-score of 0.138.

`Cc1ccc(-c2cc(C(F)(F)F)nc(SCC(=O)c3cccc([N+](=O)[O-])c3)n2)cc1` displayed a z-score of -0.37.

Consider `CCC(=O)N(C)CCc1cc2c(c(OC)c1/C=N/NC(=O)c1ccccc1O)OCO2`, for which the z-score is 0.0186.

The molecule `CCSc1c(C(=O)NC)ccc2c1C(=O)c1ccccc1C2=O` gave a z-score of -0.414.
